These results are taken from publication PMC4336329 (PLoS ONE, 2015).

Screen size: about 310,000 compounds; about 14,000 (4.5%) showed an effect of 50% or more. The effect is printed as a negative number. The list shows a part of the results.
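Note: peak tail current of the secondary pulse compared with the same well before compound.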

The assay deals with human ether-à-go-go-related gene (hERG) potassium channel (human, UniProt Q12809). Nature of the assay: primary screen, population patch clamp on CHO cells stably expressing hERG.
human ether-à-go-go-related gene (hERG) potassium channel, sequence (Q12809 whole entry, looked up): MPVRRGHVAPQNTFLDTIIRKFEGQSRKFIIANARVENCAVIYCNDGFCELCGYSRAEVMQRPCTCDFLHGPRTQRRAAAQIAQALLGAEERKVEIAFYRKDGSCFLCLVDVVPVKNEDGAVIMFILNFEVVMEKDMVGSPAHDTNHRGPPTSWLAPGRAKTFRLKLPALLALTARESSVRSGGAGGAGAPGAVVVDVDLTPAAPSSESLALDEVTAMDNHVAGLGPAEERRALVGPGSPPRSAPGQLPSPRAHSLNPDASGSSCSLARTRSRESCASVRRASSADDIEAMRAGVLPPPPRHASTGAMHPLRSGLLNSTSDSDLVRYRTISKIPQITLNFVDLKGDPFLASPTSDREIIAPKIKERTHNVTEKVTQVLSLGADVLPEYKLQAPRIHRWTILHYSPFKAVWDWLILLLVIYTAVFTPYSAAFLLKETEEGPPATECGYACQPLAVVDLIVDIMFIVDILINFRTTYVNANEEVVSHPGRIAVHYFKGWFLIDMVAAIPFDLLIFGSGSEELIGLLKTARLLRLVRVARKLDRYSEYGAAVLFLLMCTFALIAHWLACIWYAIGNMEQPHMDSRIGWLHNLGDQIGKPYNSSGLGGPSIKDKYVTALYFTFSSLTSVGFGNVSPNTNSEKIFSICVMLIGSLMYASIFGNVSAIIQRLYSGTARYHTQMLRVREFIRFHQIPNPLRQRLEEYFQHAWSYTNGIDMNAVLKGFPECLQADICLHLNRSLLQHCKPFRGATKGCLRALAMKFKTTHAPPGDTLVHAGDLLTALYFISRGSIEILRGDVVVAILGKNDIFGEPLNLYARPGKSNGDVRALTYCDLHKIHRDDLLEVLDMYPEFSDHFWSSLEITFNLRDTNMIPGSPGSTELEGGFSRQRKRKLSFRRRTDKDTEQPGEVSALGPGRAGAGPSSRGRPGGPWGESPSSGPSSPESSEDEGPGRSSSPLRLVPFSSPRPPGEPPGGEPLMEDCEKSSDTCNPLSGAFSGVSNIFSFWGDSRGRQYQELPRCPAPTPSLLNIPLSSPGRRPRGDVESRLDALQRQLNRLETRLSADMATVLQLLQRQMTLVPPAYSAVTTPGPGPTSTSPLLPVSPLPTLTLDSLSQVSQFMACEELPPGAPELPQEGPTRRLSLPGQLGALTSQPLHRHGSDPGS
For `N#C/C(=C(/O)CCl)c1nc(-c2ccccc2)cs1`, the “hERG current change (%, negative = inhibition) at 10uM” value is recorded as 6.06%. With `CCOc1cc(CN2CCCC(C(=O)c3cccc(C(F)(F)F)c3)C2)ccc1O` (centres unmarked), the “hERG current change (%, negative = inhibition) at 10uM” value is -61.2%. To `COc1cc(/C=N\NC(=O)C(C)(C)O)ccc1OC/C=C/c1ccccc1` belongs 8.78%.

`CN(Cc1cccc(C(F)(F)F)c1)C(=O)C1CCC(=O)N(CC2CCCCC2)C1` (centres unmarked): the “hERG current change (%, negative = inhibition) at 10uM” value is -6.77%. On to `Cc1sc2nc(C3CC3)nc(SCC(=O)N3c4ccccc4CC3C)c2c1C` (centres unmarked), for which the “hERG current change (%, negative = inhibition) at 10uM” value was -2.09%. The figure for `Cc1cccc(NC(=O)Nc2ccc(C)c(C)c2)n1` is 27.4%; for `O=C(NCCS(=O)(=O)N1CCN(c2cccc(Cl)c2)CC1)c1ccco1` it is -73.8%; for `O=c1[nH]c(SCC2CCCCO2)nc2ccccc12` (centres unmarked) it is 5%.

On to `CC(C)CC(c1nnnn1C(C)C)N1CCN(c2ccccc2)CC1` (centres unmarked), for which the “hERG current change (%, negative = inhibition) at 10uM” value was -8.55%.

`Cc1ccc(Nc2nnc(SCC(=O)Nc3ccc(S(=O)(=O)N4CCOCC4)cc3)s2)cc1`: the “hERG current change (%, negative = inhibition) at 10uM” value is reported as -30%. As to `COc1ccc(CCN2CC(C(=O)NCCc3cccnc3)CCC2=O)cc1` (centres unmarked), the “hERG current change (%, negative = inhibition) at 10uM” value was found to be 2.92%.

`CCOc1ccc(CNC(=O)CCS(=O)(=O)c2ccc3c(c2)NC(=O)CO3)cc1OC`: the “hERG current change (%, negative = inhibition) at 10uM” value is given as 27.9%.

With `COc1ccc(N2CC(C(=O)Nc3c4c(nn3-c3ccccc3)CS(=O)(=O)C4)CC2=O)cc1` (centres unmarked), the “hERG current change (%, negative = inhibition) at 10uM” value is listed as 0.77%.

Turning to `Cc1cccc(OCCCC(=O)NNC(=O)CCN2CCN(c3ccccc3)CC2)c1`, the “hERG current change (%, negative = inhibition) at 10uM” value was -13.7%. On to `CCCCSc1nc2c(cnn2-c2ccccc2)c(=O)n1N`, for which the “hERG current change (%, negative = inhibition) at 10uM” value is -23.9%. To `CCCCNC(=O)c1onc(CSc2ccc(Cl)cc2)c1C(=O)NCCCC` belongs -20.5%; to `O=C(Nc1cccnc1)C1CCCN(S(=O)(=O)c2cccc3nsnc23)C1` (centres unmarked), -1.77%. For the compound `COC(=O)c1cn(Cc2cccnc2)c(=O)c2ccccc12`, the “hERG current change (%, negative = inhibition) at 10uM” value came out at 3.15%. The figure for `Cc1cccc(C(=O)Nc2sc(-c3ccccc3)cc2C(=O)O)c1` is 13.1%. For the compound `COc1ccc(/C=C2/C(=O)NC(=O)N(c3ccc(C)c(C)c3)C2=O)cc1CN1C(=O)c2ccccc2C1=O`, the “hERG current change (%, negative = inhibition) at 10uM” value was -11%. `COC(=O)Nc1ccc(S(=O)(=O)Nc2cc(OC)nc(OC)n2)cc1`: the “hERG current change (%, negative = inhibition) at 10uM” value is reported as 9.41%. In the case of `COc1ccc(CNCCNC(=O)c2nonc2N)cc1OC.Cl`, the “hERG current change (%, negative = inhibition) at 10uM” value is -24.8%.

On to `O=C(NCc1ccccc1)C1=C[C@H](C2CCCCC2)C[C@H](OCc2ccc(CO)cc2)O1`, for which the “hERG current change (%, negative = inhibition) at 10uM” value is -1.09%. To `O=C(CSc1nc(=O)n2ccccc2n1)OCc1ccccc1` belongs -22.7%; to `O=C(CSCc1c(F)cccc1Cl)NCc1ccco1`, 5.05%; to `O=C(CNS(=O)(=O)c1cccc(Cl)c1)OCc1csc(-c2ccccc2)n1`, 0.00998%.

Regarding `Cc1cccc(C)c1NC(=O)CN(C)CC(=O)N(C)CC(=O)Nc1ccccc1Br`, the “hERG current change (%, negative = inhibition) at 10uM” value came to 14%. To `O=C(NCCc1ccccc1)C1CCCN1C(=O)Nc1ccccc1` (centres unmarked) belongs 10.7%.

For `COc1cccc(C2CC3(CC(C)(C)NC(=S)N3)Oc3cc(O)ccc32)c1` (centres unmarked), the “hERG current change (%, negative = inhibition) at 10uM” value was -12.4%. For `CC(C)CNC(=O)c1ccc2c(c1)C(=O)N(Cc1ccco1)C2=O`, the “hERG current change (%, negative = inhibition) at 10uM” value is listed as -13.2%. The figure for `O=C1CC(c2ccc(Cl)cc2)CC(O)=C1C=NCCO` (centres unmarked) is 7.66%; for `CCOC(=O)C1CCN(C(=O)c2sc3nc(-c4ccc(F)cc4)cn3c2C)CC1` it is -60.5%. Turning to `CCC(C)(C)n1nnnc1C(C(C)C)N1CCC(C(N)=O)CC1` (centres unmarked), the “hERG current change (%, negative = inhibition) at 10uM” value was found to be 10.4%. With `CCOC(=O)c1cc(NC(=O)SCC(=O)O)c(C)nc1C`, the “hERG current change (%, negative = inhibition) at 10uM” value is given as -23%. Turning to `CN1CCCN(C(=O)c2cc(-c3cccc4ccccc34)nc3ccccc23)CC1.Cl`, the “hERG current change (%, negative = inhibition) at 10uM” value is on record as -59.4%. To `Cc1nn(-c2ccc(F)cc2)c2sc(C(=O)N3CCCCCC3)cc12` belongs -7.19%; to `Cc1ccc(S(=O)(=O)NCCCCC(NC(=O)OC(C)(C)C)C(=O)O)cc1.c1ccc(Nc2ccccc2)cc1` (centres unmarked), 11.7%; to `O=C1CSC(=Nc2cccc([N+](=O)[O-])c2)N1`, 17.1%. To `Cl.O=C(OCCN1CCOCC1)C1(c2ccccc2)CCCC1` belongs 16.9%; to `CN(CCNC(=O)C1CCN(S(=O)(=O)c2cnc[nH]2)CC1)Cc1ccccc1`, 12.6%; to `CS(=O)(=O)N1CCN(c2ccc([N+](=O)[O-])c(NCc3ccc(Cl)cc3)c2)CC1`, 2.17%. `COc1cc2oc3ccccc3c(=O)c2cc1OC`: the “hERG current change (%, negative = inhibition) at 10uM” value is reported as -1.98%. Regarding `O=C(Nc1ccc(F)cc1)c1ccc(CSc2ccccc2)o1`, the “hERG current change (%, negative = inhibition) at 10uM” value is listed as -6.8%. The figure for `COc1ccc(OC)c(C2C(C(=O)c3cccs3)=C(O)C(=O)N2c2cc(C)on2)c1` (centres unmarked) is 18.2%; for `CN1c2ccccc2C2(C)CCCC3=Cc4cccc([N+](=O)[O-])c4OC312` (centres unmarked) it is 1.57%. With `CN(CC(=O)Nc1ccccc1C(F)(F)F)C(=O)COc1cccnc1[N+](=O)[O-]`, the “hERG current change (%, negative = inhibition) at 10uM” value is given as 9.5%.

Consider `CN(CC(=O)Nc1ccc(Cl)cc1)C(=O)c1cc(-c2cccs2)nn1-c1ccccc1`, for which the “hERG current change (%, negative = inhibition) at 10uM” value is -5.4%. To `O=C1C2C3C=CC(C4CC34)C2C(=O)N1/N=C/c1ccc(-c2ccc([N+](=O)[O-])cc2)o1` (centres unmarked) belongs 16.2%; to `Cc1ccc(OCc2nnc(SCC(=O)c3ccccc3)n2Cc2ccco2)cc1`, -47.1%. Consider `CN(C)CCCNCC(=O)NN(c1ccccc1)c1ccccc1.O=C(O)C(=O)O`, for which the “hERG current change (%, negative = inhibition) at 10uM” value is recorded as -17.4%.

Take `COc1ccc(C2N=C(N)N=C(N)N2c2ccccc2OC)cc1OC.Cl` (centres unmarked): the “hERG current change (%, negative = inhibition) at 10uM” value is given as -11.7%.

For `CCc1ccc(OCC(=O)Nc2nnc(-c3ccco3)s2)cc1`, the “hERG current change (%, negative = inhibition) at 10uM” value amounted to 11.5%.

As for `COc1ccccc1OCC(O)CN1CCOCC1` (centres unmarked), the “hERG current change (%, negative = inhibition) at 10uM” value is listed as 15.2%. To `O=C(c1ccc(Cl)cc1[N+](=O)[O-])N1CCOCC1` belongs -13.9%; to `Cc1ccccc1NC(=O)CSc1nnc2ccc(-c3cccnc3)nn12`, -33%; to `Cc1ccc(C23CC4CC(CC(C(=O)NCC(=O)O)(C4)C2)C3)cc1`, 4.26%. The figure for `O=C(CSCc1c(Cl)cccc1Cl)NN1C(=O)c2ccccc2C1=O` is -21.4%; for `C=CCN(CC=C)C(=O)C1CCN(Cc2ccc(OCc3ccccc3)cc2)CC1.O=C(O)C(=O)O` it is -68%; for `CCOCCCNC(=O)N[C@@H](Cc1ccccc1)C(=O)OC` it is 15.3%.

With `COc1cccc2[nH]c(C(=O)NCc3ccccc3)cc12.Cl`, the “hERG current change (%, negative = inhibition) at 10uM” value is given as -25.5%. Turning to `Cc1nc(NCCc2ccc(O)cc2)c2nnn(Cc3ccccc3)c2n1`, the “hERG current change (%, negative = inhibition) at 10uM” value is recorded as 0.0141%. To `CCN(C(=O)c1cc(S(=O)(=O)N2CCOCC2)cn1C)c1cccc(C)c1` belongs -30.8%; to `COc1ccc(C(=O)Cn2nnc(-c3ccccc3NC(=O)c3ccco3)n2)cc1`, 8.76%; to `Cn1cc(S(=O)(=O)N2CCC(Cc3ccccc3)CC2)c(=O)n(C)c1=O`, -11.5%. With `COc1cc(OC)cc(C(=O)N2c3ccc(F)cc3CCC2C)c1` (centres unmarked), the “hERG current change (%, negative = inhibition) at 10uM” value is given as -15.4%. The figure for `O=[N+]([O-])c1ncccc1OCc1ccc(Cl)c(Cl)c1` is 20.9%. The figure for `CCOC(=O)c1cnc(SCC(=O)c2ccccc2)nc1N` is 15.9%; for `O=C(c1ccccc1)c1ccc(N=Nc2c(O)[nH]c(=O)[nH]c2=O)cc1` it is 1.15%; for `O=C(CSc1nnnn1C1CCCC1)N1CCN(C(=O)c2ccco2)CC1` it is -13.5%.

`O=C(Nc1ccc2nc3n(c(=O)c2c1)CCCCC3)c1cc([N+](=O)[O-])ccc1F`: the “hERG current change (%, negative = inhibition) at 10uM” value is listed as -36.9%. In the case of `O=C(Cc1cccs1)Nc1ccc(F)c(F)c1`, the “hERG current change (%, negative = inhibition) at 10uM” value came to 14%.

Regarding `O=C(Nc1ccc2c(c1)OCCO2)c1ccccc1`, the “hERG current change (%, negative = inhibition) at 10uM” value amounted to 6.91%. In the case of `CC(=O)c1cccc(NC(=O)Nc2ccc3c(c2)OCO3)c1`, the “hERG current change (%, negative = inhibition) at 10uM” value was 7.14%.

Regarding `Cc1ccc(-c2c[n+](CC(=O)Nc3c(C)cccc3C)c3n2CCC3)cc1.[Cl-]`, the “hERG current change (%, negative = inhibition) at 10uM” value amounted to 14.1%. To `CCc1cc(C)cc(OCCNC(=O)c2ncn[nH]2)c1` belongs 13.3%; to `O=[N+]([O-])c1cc(C(F)(F)F)ccc1NCCc1ccncc1`, -4.62%. To `O=C(CN1C(=O)NC2(CCCC2)C1=O)Nc1nc2c(F)cc(F)cc2s1` belongs -17.1%; to `O=C(Cc1ccc(F)cc1)N1CCC(N2CCC(C(=O)N3CCOCC3)CC2)CC1`, 9.76%; to `C=CCN(C(=O)CNC(=O)c1cccs1)C(C(=O)NC(C)(C)C)c1ccccc1` (centres unmarked), 6.11%. To `CCC1=NN(C(=O)c2cccnc2)C(O)(C(F)(F)F)C1` (centres unmarked) belongs 3.08%; to `OCCC1CN(C2CCN(c3ccccc3)CC2)CCN1Cc1ccc(F)c(F)c1` (centres unmarked), -71.2%. Turning to `O=c1cccc2n1C[C@@H]1CNC[C@H]2C1`, the “hERG current change (%, negative = inhibition) at 10uM” value is -6.53%. To `O=C(NNC(=O)c1cc(-c2ccc(Cl)c(Cl)c2)nc2ccccc12)Nc1ccccc1` belongs -1.4%; to `COc1ccc(Cl)cc1NC(=O)Nc1ccccc1C(N)=O`, 22.2%. Consider `CCOC(=O)C1CCCN(CCCc2ccccc2)C1` (centres unmarked), for which the “hERG current change (%, negative = inhibition) at 10uM” value is on record as -39.1%. Consider `O=C(O)c1cccc(S(=O)(=O)Nc2ccc(O)cc2Sc2nc3ccccc3s2)c1`, for which the “hERG current change (%, negative = inhibition) at 10uM” value was determined as 28.5%.
